{"source": "the supplement of paper PMC8728848", "test_in_all_cases": "glycan array binding signal (z-score within array); higher = stronger binding", "settings_in_all_cases": "glycan notation: IUPAC condensed, linker removed", "key": {"[1]": {"biological_target": "Gal(b1-4)GlcNAc(b1-2)[Gal(b1-4)GlcNAc(b1-4)]Man(a1-3)[Gal(b1-4)GlcNAc(b1-2)Man(a1-6)]Man(b1-4)GlcNAc(b1-4)GlcNAc", "summary_of_the_method": "(§1)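 From the Consortium for Functional Glycomics database, 3228 arrays were curated, keeping only those whose protein sequence was available. Binding is given as a within-array Z-score averaged across arrays sharing a protein sequence and across linkers. Negative Z-scores can be read as non-binding.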"}, "[2]": {"biological_target": "Gal(b1-4)GlcNAc(b1-3)Gal(b1-3)GlcNAc", "summary_of_the_method": "as §1"}, "[3]": {"biological_target": "Gal(b1-4)GlcNAc(b1-3)Gal(b1-4)Glc", "summary_of_the_method": "as §1"}, "[4]": {"biological_target": "Gal(b1-4)GlcNAc(b1-3)Gal(b1-4)GlcNAc", "summary_of_the_method": "as §1"}, "[5]": {"biological_target": "Gal(b1-4)GlcNAc(b1-3)Gal(b1-4)GlcNAc(b1-3)Gal(b1-4)GlcNAc", "summary_of_the_method": "as §1"}, "[6]": {"biological_target": "Gal(b1-4)GlcNAc(b1-3)Gal(b1-4)[Fuc(a1-3)]GlcNAc(b1-3)Gal(b1-4)[Fuc(a1-3)]GlcNAc", "summary_of_the_method": "as §1"}, "[7]": {"biological_target": "Gal(b1-4)GlcNAc(b1-3)GalNAc", "summary_of_the_method": "as §1"}, "[8]": {"biological_target": "Gal(b1-4)GlcNAc(b1-3)[Gal(b1-4)GlcNAc(b1-6)]Gal(b1-4)GlcNAc", "summary_of_the_method": "as §1"}, "[9]": {"biological_target": "Gal(b1-4)GlcNAc(b1-3)[GlcNAc(b1-6)]Gal(b1-4)GlcNAc", "summary_of_the_method": "as §1"}, "[10]": {"biological_target": "Gal(b1-4)GlcNAc(b1-6)Gal(b1-4)GlcNAc", "summary_of_the_method": "as §1"}, "[11]": {"biological_target": "Gal(b1-4)GlcNAc(b1-6)Gal(b1-4)GlcNAc(b1-6)GalNAc", "summary_of_the_method": "as §1"}, "[12]": {"biological_target": "Gal(b1-4)GlcNAc(b1-6)GalNAc", "summary_of_the_method": "as §1"}, "[13]": {"biological_target": "Gal(b1-4)GlcNAc(b1-6)[Gal(b1-3)]GalNAc", "summary_of_the_method": "as §1"}, "[14]": {"biological_target": "Gal3S(b1-3)GalNAc", "summary_of_the_method": "as §1"}, "[15]": {"biological_target": "Gal3S(b1-3)GlcNAc", "summary_of_the_method": "as §1"}, "[16]": {"biological_target": "Gal3S(b1-3)[Fuc(a1-4)]GlcNAc", "summary_of_the_method": "as §1"}, "[17]": {"biological_target": "Gal3S(b1-4)Glc", "summary_of_the_method": "as §1"}, "[18]": {"biological_target": "Gal3S(b1-4)Glc6S", "summary_of_the_method": "as §1"}, "[19]": {"biological_target": "Gal3S(b1-4)GlcNAc", "summary_of_the_method": "as §1"}, "[20]": {"biological_target": "Gal3S(b1-4)GlcNAc6S", "summary_of_the_method": "as §1"}, "[21]": {"biological_target": "Gal3S(b1-4)[Fuc(a1-3)]Glc", "summary_of_the_method": "as §1"}, "[22]": {"biological_target": "Gal3S4S(b1-4)GlcNAc", "summary_of_the_method": "as §1"}, "[23]": {"biological_target": "Gal3S6S(b1-4)GlcNAc", "summary_of_the_method": "as §1"}, "[24]": {"biological_target": "Gal3S6S(b1-4)GlcNAc6S", "summary_of_the_method": "as §1"}, "[25]": {"biological_target": "Gal4S(b1-4)GlcNAc", "summary_of_the_method": "as §1"}, "[26]": {"biological_target": "Gal4S6S(b1-4)GlcNAc", "summary_of_the_method": "as §1"}, "[27]": {"biological_target": "Gal6S(b1-4)Glc", "summary_of_the_method": "as §1"}, "[28]": {"biological_target": "Gal6S(b1-4)Glc6S", "summary_of_the_method": "as §1"}, "[29]": {"biological_target": "Gal6S(b1-4)GlcNAc", "summary_of_the_method": "as §1"}, "[30]": {"biological_target": "Gal6S(b1-4)GlcNAc6S", "summary_of_the_method": "as §1"}, "[31]": {"biological_target": "GalNAc(a1-3)Gal", "summary_of_the_method": "as §1"}, "[32]": {"biological_target": "GalNAc(a1-3)GalNAc", "summary_of_the_method": "as §1"}, "[33]": {"biological_target": "GalNAc(b1-3)Gal", "summary_of_the_method": "as §1"}, "[34]": {"biological_target": "GalNAc(b1-3)Gal(a1-4)Gal(b1-4)GlcNAc", "summary_of_the_method": "as §1"}, "[35]": {"biological_target": "GalNAc(b1-3)Gal(a1-4)Gal(b1-4)GlcNAc(b1-3)Gal(b1-4)Glc", "summary_of_the_method": "as §1"}, "[36]": {"biological_target": "GalNAc(b1-3)GalNAc", "summary_of_the_method": "as §1"}, "[37]": {"biological_target": "GalNAc(b1-4)GlcNAc", "summary_of_the_method": "as §1"}, "[38]": {"biological_target": "GalNAc(b1-4)GlcNAc(b1-2)Man(a1-3)[GalNAc(b1-4)GlcNAc(b1-2)Man(a1-6)]Man(b1-4)GlcNAc(b1-4)GlcNAc", "summary_of_the_method": "as §1"}}, "note": "This is one part of the list."}
{"binder": "LcH (Lens culinaris), P02870 (protein) TETTSFSITKFSPDQQNLIFQGDGYTGKEGLTLTKVSKETGGRALYSTPIHIWDRDTVNVANFVTNGSQVFRESPNGYNVADGFTFFIAPVDTKPQTGGGYLGVFYNGKEYDKTSQTVAVEFDTFYNAAWDPSNKERHIGIDVNSIKSVNTKSWNLQNGVTSYTLNEVVPLKDVVPEWVRIGFSATTGAEFAAQEVHSWSFNSQLGHTSKS", "values": [{"measurement": "glycan array binding signal (z-score)", "setting": "[1]", "value": -0.13}, {"measurement": "glycan array binding signal (z-score)", "setting": "[2]", "value": -0.127}, {"measurement": "glycan array binding signal (z-score)", "setting": "[3]", "value": -0.107}, {"measurement": "glycan array binding signal (z-score)", "setting": "[4]", "value": -0.117}, {"measurement": "glycan array binding signal (z-score)", "setting": "[5]", "value": -0.116}, {"measurement": "glycan array binding signal (z-score)", "setting": "[6]", "value": -0.081}, {"measurement": "glycan array binding signal (z-score)", "setting": "[7]", "value": -0.122}, {"measurement": "glycan array binding signal (z-score)", "setting": "[8]", "value": -0.138}, {"measurement": "glycan array binding signal (z-score)", "setting": "[9]", "value": -0.144}, {"measurement": "glycan array binding signal (z-score)", "setting": "[10]", "value": -0.132}, {"measurement": "glycan array binding signal (z-score)", "setting": "[11]", "value": -0.094}, {"measurement": "glycan array binding signal (z-score)", "setting": "[12]", "value": -0.148}, {"measurement": "glycan array binding signal (z-score)", "setting": "[13]", "value": -0.135}, {"measurement": "glycan array binding signal (z-score)", "setting": "[14]", "value": -0.046}, {"measurement": "glycan array binding signal (z-score)", "setting": "[15]", "value": -0.117}, {"measurement": "glycan array binding signal (z-score)", "setting": "[16]", "value": -0.137}, {"measurement": "glycan array binding signal (z-score)", "setting": "[17]", "value": -0.11}, {"measurement": "glycan array binding signal (z-score)", "setting": "[18]", "value": -0.122}, {"measurement": "glycan array binding signal (z-score)", "setting": "[19]", "value": -0.102}, {"measurement": "glycan array binding signal (z-score)", "setting": "[20]", "value": -0.12}, {"measurement": "glycan array binding signal (z-score)", "setting": "[21]", "value": -0.137}, {"measurement": "glycan array binding signal (z-score)", "setting": "[22]", "value": -0.132}, {"measurement": "glycan array binding signal (z-score)", "setting": "[23]", "value": -0.086}, {"measurement": "glycan array binding signal (z-score)", "setting": "[24]", "value": -0.135}, {"measurement": "glycan array binding signal (z-score)", "setting": "[25]", "value": -0.125}, {"measurement": "glycan array binding signal (z-score)", "setting": "[26]", "value": -0.122}, {"measurement": "glycan array binding signal (z-score)", "setting": "[27]", "value": -0.137}, {"measurement": "glycan array binding signal (z-score)", "setting": "[28]", "value": -0.08}, {"measurement": "glycan array binding signal (z-score)", "setting": "[29]", "value": -0.082}, {"measurement": "glycan array binding signal (z-score)", "setting": "[30]", "value": -0.076}, {"measurement": "glycan array binding signal (z-score)", "setting": "[31]", "value": -0.107}, {"measurement": "glycan array binding signal (z-score)", "setting": "[32]", "value": -0.119}, {"measurement": "glycan array binding signal (z-score)", "setting": "[33]", "value": -0.101}, {"measurement": "glycan array binding signal (z-score)", "setting": "[34]", "value": -0.149}, {"measurement": "glycan array binding signal (z-score)", "setting": "[35]", "value": -0.114}, {"measurement": "glycan array binding signal (z-score)", "setting": "[36]", "value": -0.122}, {"measurement": "glycan array binding signal (z-score)", "setting": "[37]", "value": -0.123}, {"measurement": "glycan array binding signal (z-score)", "setting": "[38]", "value": -0.112}]}
